Measured values reported in the RNAGym collection of RNA variant scans (doi:10.7554/elife.90254).
The source gives no read counts; variants with many changes may rest on few reads.

B1: OR4K15 (parent)
chain: GUUAACGGUCAUAGGCCAUGGAAACUAGGAGCACCAUUUCGCUGCCAGUGAAGAAAUGAACAAAGAAAAUCUGGGCCAGGCAGGCAUCAAAAGAAAUAGUCUUGCGCUCAACCAGAAAGUCUGUAAUCAUUUUAAGGGUA

Variants of: B1
Assay: self-cleavage, relative activity (ratio to wild type); higher = more cleavage; in vitro, sequencing; the parent is a self-cleaving ribozyme
A5G A118G A129G gave a self-cleavage of 0.43. A36U A92G U100C U102C showed a self-cleavage of 2.14. U37C A52G U108A showed a self-cleavage of 0.04. Variant A24G A54G A64U U102C has a self-cleavage of 2.12. In the case of U9A A33G U131C, the self-cleavage is reported as 0.56. In the case of A11G U26C U70C U72C A89U, the self-cleavage is reported as 0.29. Variant A33U G104U U108C has a self-cleavage of 0. In the case of G44A A96G U120C G136A G138A, the self-cleavage is reported as 1.06. A22G A51G A89G U132C gave a self-cleavage of 1.29. For U12C A60G U127C, the self-cleavage was 0.51. With A5U U37C A111G the self-cleavage was 0.01. In the case of A56G U124C A140G, the self-cleavage is reported as 0.36. Variant A22U A54G A91C A94G U103C has a self-cleavage of 0.95. Variant U2C A78U A116G has a self-cleavage of 0.07. A78U A91G U103C gave a self-cleavage of 0.02. Work on A33G G44A A78G A114C C121A yielded a self-cleavage of 0. For A24G A55G U72G A89G, the self-cleavage was 0.15. For A63G U87C A96G A117G, the self-cleavage was 2.11. Work on A67G G93A A134G yielded a self-cleavage of 2.09. A4G U9C A54U A89G A96G U124C gave a self-cleavage of 0.55. In the case of A63G A86G A94U A111G, the self-cleavage is reported as 0.03. For A24G A114G A126G U131A, the self-cleavage was 0.41. Work on A56G A68U G99U U120G yielded a self-cleavage of 0.09. For A24G U39A A95G, the self-cleavage was 2.19. A56G A78U A140G showed a self-cleavage of 0.39. In the case of A51G A67G A96U A134G, the self-cleavage is reported as 1.9. Work on A33G A47U A67U U131A yielded a self-cleavage of 0.37. A59G U103A C109U gave a self-cleavage of 0.02. For A63U A86U U87C A92G A129U, the self-cleavage was 0.21. A66G A91G G106A showed a self-cleavage of 0. Work on A30G U43C A51G A78U A118G yielded a self-cleavage of 0.24. For A36U U37C G123A, the self-cleavage was 2.47. Variant U9A A30G U127G has a self-cleavage of 2.18. With U2C A27G U37C the self-cleavage was 1.34. With A56G A92G A95G A129C the self-cleavage was 0.88. A18G G31C A55G U97C A118U gave a self-cleavage of 0.56. G28A A78G U122C showed a self-cleavage of 0.06. Work on U49C U72A U100C yielded a self-cleavage of 0.63. With G7A A82G A98C A140U the self-cleavage was 0.28. For U39A A51G A54U A90G, the self-cleavage was 1.67. In the case of A54G A94G A114U A118G A134U, the self-cleavage is reported as 0.02. For U37C A51G U57C A64G U103C C113A G123U, the self-cleavage was 0.03. With A30U A63C A64U A68G U87C the self-cleavage was 1.16. U70C A92G A94G U127C gave a self-cleavage of 0.24. In the case of U26C A27G U49C A59G C112U, the self-cleavage is reported as 0.04. Work on A13U A24G A82G A94G yielded a self-cleavage of 0.81. For U43A U49C A78G A94G A96G, the self-cleavage was 0.12. In the case of A5G A33C A54G, the self-cleavage is reported as 1.44. Work on G14U U26G A47G A60G U87C yielded a self-cleavage of 0.63. A33G G48A A91G A114G U122C U132C gave a self-cleavage of 0.01. In the case of A36U A86U U103A U120A, the self-cleavage is reported as 1.84. With A54G A64G U87C A117U A126G U139A the self-cleavage was 0.36. A11U A67G A90G showed a self-cleavage of 1.3. A18G U37C A86G A134U gave a self-cleavage of 1.5. In the case of A63C U70A A78U C105U U108C, the self-cleavage is reported as 0. G31A G138A A140G gave a self-cleavage of 0.41. A60G G75A U102C showed a self-cleavage of 0.17. With A64G U108C A116G the self-cleavage was 0.01. Work on G21A A66G G138A yielded a self-cleavage of 1.47. G1A U19C U57C A78U showed a self-cleavage of 0.58. Variant A96G A118G U122C has a self-cleavage of 0.8. Work on U87C A92U U100C yielded a self-cleavage of 2.08. In the case of U3C A52G A96G A98G, the self-cleavage is reported as 0.49. In the case of A24U A86U U127C, the self-cleavage is reported as 0.89. Variant A11U A18U G31A A82U A86G U120A has a self-cleavage of 0.09. In the case of A23G C34U A82U U100C A110G A118G, the self-cleavage is reported as 0.13. Work on A23U A55G A89U A95G A110G U131C A135U yielded a self-cleavage of 0.17. A51U A63G A111U showed a self-cleavage of 0.09. Variant A24G U38C A59U has a self-cleavage of 1.4. In the case of U9C U43C A54G A68G, the self-cleavage is reported as 0.98. U43C U97C A117G gave a self-cleavage of 1.33. In the case of U38C U43A A89G A91U, the self-cleavage is reported as 1.98. With G21A A23G A33U U37C A90G the self-cleavage was 0.59. A36G A92G U120C showed a self-cleavage of 0.75. In the case of U9C A51G A89G, the self-cleavage is reported as 2.33. With A86U A89U A96G the self-cleavage was 1.21. In the case of U9C A23G A62C U70C U124A, the self-cleavage is reported as 0.07. In the case of A30U U70C A90G, the self-cleavage is reported as 1.13. In the case of A54G A60G A110G U130C, the self-cleavage is reported as 0.1. A47G A51G A60G U87C gave a self-cleavage of 0.69. For G48A A67G U122C, the self-cleavage was 0.54. Variant C6A U43A A96G has a self-cleavage of 0. In the case of U9C U37C U72G U122C U133A A134U, the self-cleavage is reported as 0.07. With A30U A36G U38C the self-cleavage was 2.1. With A55U A91G U131C U132A the self-cleavage was 1.01. Variant A60G A68C A95G has a self-cleavage of 1.82. In the case of U2C A11U A64G U103C A129G, the self-cleavage is reported as 0.48. In the case of A78U U87A A129G, the self-cleavage is reported as 0.35. For A54G A62G A82U A96G, the self-cleavage was 0.32. Variant A13U U102C U139A has a self-cleavage of 2.35. A67G A117G U120C gave a self-cleavage of 0.5. A30G A51G A54G A66G showed a self-cleavage of 0.44. Work on U9G U19A A24G U37A A54U A63G yielded a self-cleavage of 1.16. Work on A56G A111G A114G A117G A140G yielded a self-cleavage of 0. U37C A67G A125U A140G showed a self-cleavage of 2.04. Variant C105A U108A A114G has a self-cleavage of 0.04. A4G G8A A27G U43A A92G A98U gave a self-cleavage of 1.59. A33G G41A C105U U122C gave a self-cleavage of 0.05. Variant U9C A30G A118G has a self-cleavage of 0.73. U57A A90G U122C showed a self-cleavage of 0.51. U19A A36G U87C gave a self-cleavage of 1.45. Work on A36G A52G A63G U108C A125G A126G yielded a self-cleavage of 0.01. A5G A47G A114U A135G showed a self-cleavage of 0.04. In the case of A5G U37C A116G, the self-cleavage is reported as 1.38. Variant U57G A117G A134C has a self-cleavage of 0.9. Work on U26G U43C G137A yielded a self-cleavage of 1.18. U19C U38C A66G A89G C105A A125G showed a self-cleavage of 0.01. A64G C77U U124C showed a self-cleavage of 1.49. With A36G A52G A89G A92G the self-cleavage was 1.63. In the case of U57C A111G U127C, the self-cleavage is reported as 0. With U2A A59G A114G A126G A135G the self-cleavage was 0.09. U19A A24C A118C showed a self-cleavage of 1.55. For G7U U12A A95G A117G, the self-cleavage was 1.83. A60G U87A A129G A135G gave a self-cleavage of 0.92. For A68G A114G A118U U127A, the self-cleavage was 0.09. With A5U A62U A63G A126G the self-cleavage was 1.24. A36G A55G A95G U103C gave a self-cleavage of 1.43. In the case of A56G U87C A118G U131C, the self-cleavage is reported as 0.34. A54G C101A G106A U133A showed a self-cleavage of 0.01. Work on A30U A91G U131C yielded a self-cleavage of 1.07. Variant A55U A67G A89C has a self-cleavage of 1.65. A11U G58U A67G showed a self-cleavage of 0.69. With A30U A63G A94G the self-cleavage was 1.42. With A13G A82U A114U U132C the self-cleavage was 0.11. A51G A60U A92G A95G showed a self-cleavage of 1.88. Work on U49C A95G A118U A135G yielded a self-cleavage of 0.63. Variant G7U U103C U108C A116G U124C has a self-cleavage of 0. Variant A67G A69G A86G has a self-cleavage of 1.17. A4G C6U U12C A51G A59G U103C showed a self-cleavage of 1.14. With G41A U102C A110G the self-cleavage was 0.17. For A55G U87C U127C, the self-cleavage was 1.14. A52U A68G A78G U102A A111G gave a self-cleavage of 0.04. Work on A51G U57C U70C U102C yielded a self-cleavage of 1.43. Work on A92U A111U A114G yielded a self-cleavage of 0.05. For U2A A5G A33G A54G A62G, the self-cleavage was 0.21. In the case of C34U A67G G83A A117G U131C, the self-cleavage is reported as 2.72. Variant A5U A36U A64G U87C has a self-cleavage of 1.34. With A18C U39A A94U U108A U130C the self-cleavage was 0. G29A A51U U108C showed a self-cleavage of 0.02. A52U A60G U70C gave a self-cleavage of 0.65. Variant A90U C105G A126G has a self-cleavage of 0.03. For A54G U70C C81U A82U, the self-cleavage was 0.24. Work on A22G U49A A63U yielded a self-cleavage of 1.23. A55G U72C U124C gave a self-cleavage of 0.16. A11G U49C A60U showed a self-cleavage of 0.7. Work on A51G A67G A116G yielded a self-cleavage of 0.52. In the case of G1A A23G U103A A117G, the self-cleavage is reported as 1.58. For A24G U38C A56G A96G, the self-cleavage was 1.09. A36G G44A A94U gave a self-cleavage of 2.12. Work on A51G A118G U122C yielded a self-cleavage of 1.34. U9A A22G C45U showed a self-cleavage of 0.75. With A90G A92G A94U U133C A134G the self-cleavage was 1.39. C17A A22G C34U U39C U100C U103C gave a self-cleavage of 1.4. For C34G U87C A90G A96G U124G, the self-cleavage was 0.36. With U37C A60G A95U A116G the self-cleavage was 0.31. In the case of A5G A22U U39A, the self-cleavage is reported as 1.42. Variant A27G A33G A55C A69C has a self-cleavage of 0.63. Work on U38C U43A A78G yielded a self-cleavage of 0.38. With A54G A55G A64G the self-cleavage was 1.74. In the case of A18U A36G A54G U133C, the self-cleavage is reported as 1.37. In the case of A33U C45G A60C G74A, the self-cleavage is reported as 0.32. Work on U37C U103C A114C yielded a self-cleavage of 0.03. With U2C A67G U70A the self-cleavage was 1.26. Variant U2A A110C A117U A126G has a self-cleavage of 0.1. U43G U57C C128A gave a self-cleavage of 0.89. Work on A54U U120C A140G yielded a self-cleavage of 0.82. With A51G A56G A96G U122A U132A the self-cleavage was 1.13.
